Reference: PubChem BioAssay AID2147 (National Center for Advancing Translational Sciences (NCATS), 2009)
Screen size: about 230,000 compounds; about 3,600 (1.6%) were called active. The inconclusive results got no clear call from the source; some entries with a clear call stand among them for comparison. The call rests on the fitted dose curve; in most records, active means well fitted inhibition curve with a large enough effect (not every such curve was filed as active); inconclusive means small, poorly fitted or top-dose-only effect, or another doubt; inactive means no such curve, though single readings can be large or run the other way. Potencies of inconclusive entries are doubtful fits and often do not repeat.

target: Lysine-specific demethylase 4E (Homo sapiens) (UniProt B2RXH2); experiment: qHTS Assay for Inhibitors of Human Jumonji Domain Containing 2E (JMJD2E); settings: JMJD2E catalytic domain, FDH-coupled NADH fluorescence (FDH is formaldehyde dehydrogenase); series mostly up to 57.1 µM
UniProt B2RXH2, sequence (B2RXH2 whole entry, looked up, the tested form may be a part): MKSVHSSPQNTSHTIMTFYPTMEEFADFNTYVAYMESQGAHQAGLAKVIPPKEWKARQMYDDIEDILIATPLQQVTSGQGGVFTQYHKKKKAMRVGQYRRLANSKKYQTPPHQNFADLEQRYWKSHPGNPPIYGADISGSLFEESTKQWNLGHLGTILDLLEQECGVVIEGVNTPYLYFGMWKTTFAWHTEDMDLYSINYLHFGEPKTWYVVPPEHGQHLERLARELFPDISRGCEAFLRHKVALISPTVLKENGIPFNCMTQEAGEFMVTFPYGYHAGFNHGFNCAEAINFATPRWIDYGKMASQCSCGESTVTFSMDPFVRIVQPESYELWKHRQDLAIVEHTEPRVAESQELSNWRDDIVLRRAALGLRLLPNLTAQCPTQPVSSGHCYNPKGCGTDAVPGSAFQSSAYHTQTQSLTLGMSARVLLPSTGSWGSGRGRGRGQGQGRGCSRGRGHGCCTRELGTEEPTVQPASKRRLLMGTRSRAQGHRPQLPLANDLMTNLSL
Further: nearly all actives have a fitted effect of over 50% in size.
Potency means the concentration at half of the fitted maximal effect; tags describe the fitted curve by direction and shape.

| SMILES | Potency |
| --- | --- |
| CCc1nnc(NC(=O)CN2CCN(c3ccccc3OC)CC2)s1 | inconclusive: 39.8 µM [inhibitor, single point] |
| Cc1ccccc1-n1c(=S)[nH]c2nc3c(cc2c1=O)COC(C)(C)C3 | inconclusive: 31.6 µM [inhibitor, single point] |
| CCOC(=O)C1CCCCN1C(=O)CCc1c(C)nc2cc(-c3ccccc3)nn2c1C (centres undefined) | inconclusive: 31.6 µM [inhibitor, single point] |
| CCOC(=O)N1CCN(C(=S)Nc2ccc3nc(N4CCN(CC)CC4)cc(C)c3c2)CC1 | inconclusive: 28.2 µM [inhibitor, partial curve] |
| CCOC(=O)C1=C2NC(=O)c3ccccc3N2C(=O)C1 | inconclusive: 11.2 µM [inhibitor, partial curve, poor fit] |
| COc1ccccc1N=C1SCC(=O)N1c1ccccc1OC | inactive |
| O=C(Nc1ccc(N2CCN(C(=O)c3ccccc3)CC2)c(Cl)c1)c1ncn[nH]1 | inactive |
| C#CCOCCOCCOCCNc1nc(N2CCN(C(=O)[C@H](CCCCN)n3cc([C@@H](N)C(C)CC)nn3)CC2)nc(N2CCN(C(=O)[C@H](CCCCN)n3cc([C@@H](N)CO)nn3)CC2)n1 (some centres undefined) | active: 20 µM |
| Cc1ccc(S(=O)(=O)NCCNc2ccc([N+](=O)[O-])cc2C(F)(F)F)cc1 | inactive |
| FC(F)(F)c1cc(NC(=S)Nc2ccc3ccccc3c2)cc(C(F)(F)F)c1 | inconclusive: 31.6 µM [inhibitor, partial curve] |
| COCc1cc(C)nc(N/N=C/c2ccc(-c3cc(C(=O)O)ccc3Cl)o2)c1C#N | inconclusive: 31.6 µM [inhibitor, partial curve] |
| O=S(=O)(c1cccc2nsnc12)N1CCc2ccccc21 | inconclusive: 35.5 µM [inhibitor, partial curve, poor fit] |
| O=C(Nc1nc(-c2ccccn2)cs1)c1ccco1 | inconclusive: 39.8 µM [inhibitor, single point] |
| COc1ccc(-c2nc3ccccn3c2NCc2ccc3c(c2)OCO3)cc1 | inconclusive: 25.1 µM [inhibitor, partial curve] |
| O=C1CCCC2=C1C(c1cn(-c3ccccc3)nc1-c1cccs1)c1c([nH]c(=O)[nH]c1=O)N2 (centres undefined) | inconclusive: 39.8 µM [inhibitor, single point] |
| COC(=O)c1cnn(-c2nc(OC)cc(OC)n2)c1C | inactive |
| COC(=O)c1cc(NC2c3ccccc3C(=O)N2Cc2ccco2)cc(C(=O)OC)c1 (centres undefined) | inactive |
| Cc1ccc2nc3c(cc(C(=O)NC4CCCC4)c(=N)n3CCCn3ccnc3)c(=O)n2c1 | inconclusive: 15.8 µM [inhibitor, partial curve] |
| O=C(NC(CSCc1ccccc1)C(=O)N/N=C/c1ccc(O)cc1O)c1ccc([N+](=O)[O-])cc1 (centres undefined) | inconclusive: 39.8 µM [inhibitor, single point] |
| COC(=O)c1cn[nH]c1NC(=S)Nc1ccc(Cl)c(Cl)c1 | inactive |
| CSc1nc2ccc(NC(=O)NC(=O)c3c(F)cccc3F)cc2s1 | inactive |
| CCc1nc(SCC(=O)c2cc(C)ccc2C)n[nH]1 | inconclusive: 35.5 µM [inhibitor, single point] |
| CC(C)(C)c1ccc(C(=O)CSc2ncn[nH]2)cc1 | inconclusive: 35.5 µM [inhibitor, single point] |

| SMILES | Potency |
| --- | --- |
| Cc1ccc(S(=O)(=O)Nc2nc3ccc(S(C)(=O)=O)cc3s2)cc1 | inactive |
| CC(=O)N/C(=C\c1ccccc1)C(=O)OCC(=O)N(C)C1CCCCC1 | inactive |
| Cc1ccc(-n2c(Cc3cccc4ccccc34)n[nH]c2=S)c(C)c1 | inactive |
| COc1ccc2nc3oc(C(=O)N4CCC(C(N)=O)CC4)cc3cc2c1 | inconclusive: 28.2 µM [inhibitor, partial curve] |
| COC(=O)c1ccc(C(NC(=O)OCc2ccccc2)/C(C)=C/[C@@H](C)C(=O)N(C)Cc2cccnc2)cc1 (some centres undefined) | inactive |
| Cc1ccc(-n2nc3c4c(cccc4c2=O)-c2ccccc2-3)cc1 | inconclusive: 17.8 µM [inhibitor, partial curve, poor fit] |
| NC(=O)N/N=C/c1c(Sc2nnnn2-c2ccccc2)nc2ccccn2c1=O | inconclusive: 22.4 µM [inhibitor, partial curve] |
| CCOC(=O)c1c(NC(=O)CN2C(=O)NC3(CCCCC3)C2=O)sc(C)c1-c1ccc(C)cc1 | inconclusive: 14.1 µM [inhibitor, partial curve] |
| Nc1[nH]c(N=NC(=O)c2ccccc2)c2ccccc12 | inactive |
| CC(C)c1nnc(SCC(=O)NCCC2=CCCCC2)n1N | inactive |
| O=C(CN1CCN(c2ccc(O)cc2)CC1)Nc1cc(S(=O)(=O)N2CCOCC2)ccc1Cl | inconclusive: 17.8 µM [inhibitor, single point] |
| CC(=O)Nc1cc(C(=O)O)ccc1S(=O)(=O)c1ccc(Cl)cc1 | inconclusive: 25.1 µM [inhibitor, single point] |
| CNc1nc(Sc2cccc(C(F)(F)F)c2)cc(C(F)(F)F)n1 | inconclusive: 39.8 µM [inhibitor, single point] |
| CCc1cc(=O)oc2cc(C)c(CN3CCCC(C)C3)c(O)c12 (centres undefined) | inconclusive: 25.1 µM [inhibitor, single point] |
| O=C1c2nc3cc(-c4ccccc4)[nH]n3c(=O)c2CN1Cc1ccccc1 | inconclusive: 1.78 µM [inhibitor, partial curve] |
| Cc1ccc(CN2CCN(Cc3cn(C)nc3-c3ccccc3)CC2CCO)o1 (centres undefined) | inactive |
| COC(=O)c1ccc(C(=O)OC)c(NC(=S)N2CCCC(C)C2)c1 (centres undefined) | inconclusive: 28.2 µM [inhibitor, partial curve] |
| CCOC(=O)c1cnn(-c2nc(-c3ccc(F)cc3)cs2)c1C(F)(F)F | inconclusive: 28.2 µM [inhibitor, partial curve] |
| C=CCn1cc(C(=O)NCC2CCCO2)c(=O)c2cc(S(=O)(=O)N3CCCCCC3)ccc21 (centres undefined) | inactive |
| O=C(c1cc2cc(Cl)ccc2oc1=O)N1CCOCC1 | inconclusive: 31.6 µM [inhibitor, single point] |
| O=C(Nc1ccc(C(=O)O)cc1)/C(=C\c1ccc2c(c1)OCO2)NC(=O)c1ccc(Br)o1 | inactive |
| O=S(=O)(Cc1ccccc1)N1CCCc2ccccc21 | inactive |
| COc1ccc(C(=O)NCCCN2CCCC2=O)cc1 | inactive |

| SMILES | Potency |
| --- | --- |
| C#CCOCCOCCOCCNc1nc(N2CCN(C(=O)[C@H](CCCCN)n3cc(C(N)CO)nn3)CC2)nc(N2CCN(C(=O)[C@H](CCC(=O)O)n3cc(C(N)CC(C)C)nn3)CC2)n1 (some centres undefined) | active: 20 µM |
| COc1cc(C(Nc2ccc(S(=O)(=O)N3CCC(C)CC3)cc2)C(=O)NCC2CCCO2)cc(OC)c1OC (centres undefined) | inactive |
| COc1cc(/C=C2/SC(=NCc3ccccc3)N(Cc3ccccc3)C2=O)ccc1O | inactive |
| CC(NC(=O)/C(C#N)=C1\N=C(NC(=O)c2cccs2)c2ccccc21)c1ccccc1 (centres undefined) | inconclusive: 39.8 µM [inhibitor, single point] |
| Cn1c(=O)[nH]c(=O)c2c1nc(Br)n2CCCc1ccccc1 | inactive |
| CC(=O)c1c(C)nn(CC(O)Cn2c3c(c4cc(C)ccc42)CCCC3=O)c1C (centres undefined) | inconclusive: 31.6 µM [inhibitor, partial curve] |
| CCOC(=O)c1[nH]c2ccccc2c1NC(=O)CC | inconclusive: 35.5 µM [inhibitor, single point] |
| CCn1cc(C(=O)N2CCOCC2)c(=O)c2cc(S(=O)(=O)N(C)C3CCCCC3)ccc21 | inconclusive: 39.8 µM [inhibitor, single point] |
| O=C(C1CCCN1S(=O)(=O)c1cccc2nsnc12)N1CCCCCC1 (centres undefined) | inactive |
| N=C1/C(=C\c2ccc(-c3ccc(C(=O)O)cc3)o2)C(=O)N=C2SC=C(c3ccccc3)N12 | inconclusive: 12.6 µM [inhibitor, partial curve] |
| COc1ccc(CNC(=O)NC2CCCCC2)cc1 | inactive |
| COc1ccc(S(=O)(=O)Nc2cc(C(=O)NCCC(C)C)ccc2N2CCOCC2)cc1 | inactive |
| CCN(CC)CCN(CC(=O)N(C1CCCCC1)C1CCCCC1)C(=O)c1ccco1 | inconclusive: 25.1 µM [inhibitor, single point] |
| CC(C)Nc1nc(Oc2ccc(Cl)cc2)cc(C(F)(F)F)n1 | inconclusive: 39.8 µM [inhibitor, single point] |
| Cc1cc(NC(=O)CN2CCc3ccccc3C2)nc2c1c(=O)oc1ccccc12 | inconclusive: 28.2 µM [inhibitor, single point] |
| CN1CCCCc2c1[nH]c1ccccc1c2=O | inconclusive: 28.2 µM [inhibitor, partial curve] |
| COc1ccc(C(=O)n2nc(-c3ccc(OC)cc3)nc2N)cc1 | inconclusive: 35.5 µM [inhibitor, single point] |
| COc1cc(/C=C2\C(C)=C(C#N)c3nc(N)c(C#N)c(C)c32)ccc1OCC(=O)O | inconclusive: 28.2 µM [inhibitor, partial curve] |
| CC1=CC(C)(C)NC(=S)N1c1cccc2cc(S(=O)(=O)O)ccc12 | inconclusive: 25.1 µM [inhibitor, partial curve] |
| O=c1cc(-c2ccco2)oc2c1ccc1ccccc12 | inconclusive: 7.94 µM [inhibitor, partial curve] |
| COc1ccc(-c2nc3cc(NC(=S)NC(=O)Cc4ccccc4)ccc3o2)cc1 | inactive |
| COc1ccc(/C=C2/SC(=O)NC2=O)cc1 | inactive |
| CC(=O)[C@@]1(O)C(C)CC2C3C=C(C)C4=Cc5c(cnn5-c5ccccc5)C[C@]4(C)C3C(O)C[C@@]21C (some centres undefined) | inconclusive: 35.5 µM [inhibitor, partial curve] |
